Read counts are not given, so values of variants with three or more changes are uncertain.
B1: CPEB3 Ribozyme (parent)
chain: UAACAGGGGGCCACAGCAGAAGCGUUCACGUCGCAGCCCCUGUCAGAUUCUGGUGAAUCUGCGAAUUCUGCUGUAUAUCUC

Variants of: B1
Test: self-cleavage, relative activity (ratio to wild type); higher = more cleavage; in vitro, sequencing
Summary of the method: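 Libraries of CPEB3 self-cleaving ribozyme mutants came from rounds of error-prone PCR and carried barcodes, which DNA sequencing matched to variants. In vitro transcription used T7 RNA polymerase at 37°C for 5 hours, with a further 15 min in DNase I before EDTA stopped the reaction; the ribozymes cleaved during both steps. The RNA was reverse transcribed with template switching and sequenced on Illumina. Relative activity is the cleaved/total read fraction of a variant divided by that of the unmutated ribozyme, averaged over three batches with at least 5 reads.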

Variant | self-cleavage
A15G U69A G70A | 0.18
A15G U69A U78C | 0.34
A15G U69C U72A | 0.36
A15G U69C U72C A77U | 0.95
A15G U69C U74C | 0.3
A15G U72C U74C | 1.21
A15G U72C U80C | 1.14
A15G U74C U80C | 1.29
A15G U74G A75U U76A | 0.87
A15G U78A U80C | 1.05
A15U A18C A28G U41C U66C U76C U80A | 0.18
A15U A18C A56G U60C | 0.18
A15U A18C U25C C29A A35G A64U U78A | 0.04
A15U A18C U43C | 0.21
A15U A18C U69C | 0.19
A15U A18C U80C | 0.35
A15U A18G A20G C23U A45U A56G U80C | 0.06
A15U A18G A28G | 0
A15U A18G A35U U54C G61C U72C | 0.07
A15U A18G A45C A47G A64G U80C | 0.04
A15U A18G A45G U69C U78C | 0.73

Variant | self-cleavage
A15U A18G A47U U72A | 0.08
A15U A18G A56C U60C | 0.07
A15U A18G A57G U60C U66C | 0.27
A15U A18G A65G A77G | 0.08
A15U A18G A65G U80C | 0.16
A15U A18G C27U C32U U41C U43A | 0.26
A15U A18G C29G A75U | 0.07
A15U A18G C38U A56C C59A | 0.07
A15U A18G C39U | 0.39
A15U A18G C40U | 0.32
A15U A18G G30U U69C | 0.15
A15U A18G U25A C32U U48C A56G U60C | 0.05
A15U A18G U25A U48C A64G U69C | 0.04
A15U A18G U25C U49C G63U A77G | 0.15
A15U A18G U26C A28G A45U U72C | 0.08
A15U A18G U26C U51C A64G U76C | 0.02
A15U A18G U31C U48A U78C U80A | 0.06
A15U A18G U41A U54A A57G U78A | 0.28
A15U A18G U41C A57G U72C | 0.59
A15U A18G U41G C44U A45U A57G | 0.08
A15U A18G U48C C71U | 0.1

Variant | self-cleavage
A15U A18G U58C | 0.21
A15U A18G U58C U69A | 0.03
A15U A18G U58C U72G U74C | 0.07
A15U A18G U60A U67C A77G | 0.16
A15U A18U A20C | 0.18
A15U A18U A20C U51C U74C U78C | 0.17
A15U A18U A20U U26A C39U U51G U58C | 0.15
A15U A18U A28U U41C A64G A75G | 0.05
A15U A18U A45G U74G A77U | 0.18
A15U A18U A47C | 0.16
A15U A18U A56U A57G G73A | 0.1
A15U A18U A64G | 0.15
A15U A18U A64U | 0.11
A15U A18U A65G U66C | 0.16
A15U A18U A77U | 0.31
A15U A18U C38U G53A | 0.1
A15U A18U C40U | 0.33
A15U A18U C62U U74C U76C | 0.13
A15U A18U G33U A57U U60C | 0.04
A15U A18U G63A | 0.13
A15U A18U U25C U26A U72A G73A U76C | 0.06

Variant | self-cleavage
A15U A18U U26C A65G | 0.19
A15U A18U U26C A65U U80C | 0.17
A15U A18U U26G A45U C50U A56U | 0.15
A15U A18U U41C A65U | 0.14
A15U A18U U41C U60C G61U C81A | 0.16
A15U A18U U41C U67C | 0.13
A15U A18U U43C A45G | 0.22
A15U A18U U48C A57G U72C | 0.31
A15U A18U U48C C71A U74A A75U | 0.08
A15U A18U U51C A64G | 0.15
A15U A18U U60C U78C U80C | 0.12
A15U A18U U72G U74C A75U | 0.07
A15U A20C U69A | 0.14
A15U A20G A21G A28G U31A A45U U49C | 0.28
A15U A20G A21G U48C U72C | 0.09
A15U A20G A21G U49C | 0.28
A15U A20G A21G U69A U78C | 0.16
A15U A20G A28G A35G U66C U80A | 0.18
A15U A20G A28G U41C A45U G55U | 0.12
A15U A20G A35G U41C U67C | 1.14

Source: the RNAGym collection of RNA variant scans (doi:10.1093/nar/gkz1192)
